Where a name gives a salt, the structure may show the parent alone. The list shows a part of the results. Repeats are few or missing, and single values can be far off.
Tests used:
OVCAR4 = assay: log2 surviving fraction (library drug vs vehicle, or drug + carboplatin vs carboplatin alone; relative to plate median); ovarian cancer lines: OVCAR4 is platinum-sensitive and Ov4Carbo platinum-resistant; higher = more cell survival; settings: library drug concentration 10 µM, 7 days
Ov4Carbo = assay: as above; settings: library drug concentration 10 µM, 7 days

Structure (SMILES) | log2 surviving fraction (OVCAR4; carboplatin co-treatment 0 µM) | log2 surviving fraction (OVCAR4; carboplatin co-treatment 5 µM) | log2 surviving fraction (Ov4Carbo; carboplatin co-treatment 0 µM) | log2 surviving fraction (Ov4Carbo; carboplatin co-treatment 5 µM)
CC(C)(CO)[C@@H](O)C(=O)NCCC(=O)O [Pantothenic acid (pantothenate)] | 0.208 | 0.619 | 0.429 | 0.371
C=C[C@H]1CN2CC[C@H]1C[C@H]2[C@H](O)c1ccnc2ccc(OC)cc12 [Quinine hydrochloride dihydrate] | -0.507 | -0.588 | -0.392 | -0.295
CN(C)C(=N)NC(=N)N [Metformin hydrochloride (Glucophage)] | -0.193 | 0.276 | -1.27 | 1.15
O=C(O)c1ccccc1 [Benzoic acid] | -0.926 | 0.629 | -0.653 | 0.0274
O=C1Cc2cc(CCN3CCN(c4nsc5ccccc45)CC3)c(Cl)cc2N1 [Ziprasidone hydrochloride] | -0.112 | -0.215 | -0.27 | 0.436
CN(C)[C@@H]1C(O)=C(C(=O)NCN2CCCC2)C(=O)[C@@]2(O)C(O)=C3C(=O)c4c(O)cccc4[C@@](C)(O)[C@H]3C[C@@H]12 [Rolitetracycline] | -0.52 | -4.51 | -0.354 | 0.0729
Cc1cccc(C)c1OCC(C)N (stereo not drawn) [Mexiletine HCl] | 0.813 | 0.34 | 0.844 | 0.642
CC(=O)OCC(=O)[C@@]12N=C(C)O[C@@H]1C[C@H]1[C@@H]3CCC4=CC(=O)C=C[C@]4(C)[C@H]3[C@@H](O)C[C@@]12C [Deflazacort (Calcort)] | -0.363 | -0.155 | 0.777 | 0.597
CCOC(=O)c1cncn1[C@H](C)c1ccccc1 [Etomidate] | 0.48 | 0.899 | 0.252 | -0.55
Cc1ccnc2c1NC(=O)c1cccnc1N2C1CC1 [Nevirapine (Viramune)] | 0.0122 | 0.558 | 0.075 | -0.626
CC(C)CC(N)=O [Isovaleramide] | 0.498 | 1.05 | 0.974 | 1.15
OC[C@@H](O)[C@@H](O)[C@H](O)[C@H](O)CO [D-Mannitol (Osmitrol)] | -0.668 | 0.609 | -0.039 | 0.103
CC1(C)S[C@@H]2[C@H](NC(=O)[C@H](N)c3ccccc3)C(=O)N2[C@H]1C(=O)O [Ampicillin sodium] | 0.308 | -0.25 | -1.15 | -0.706
C[C@@H](c1ncncc1F)[C@](O)(Cn1cncn1)c1ccc(F)cc1F [Voriconazole] | -0.387 | 0.314 | -0.63 | 0.452
O=C(O)/C=C/c1ccc(Cn2ccnc2)cc1 [Ozagrel HCl] | -0.121 | 0.907 | 1.11 | 1.17
COc1c2occc2cc2ccc(=O)oc12 [Methoxsalen (Oxsoralen)] | -0.37 | -0.081 | 0.421 | 1.32
O=C1c2c(O)ccc(O)c2C(=O)c2c(NCCNCCO)ccc(NCCNCCO)c21 [Mitoxantrone Hydrochloride] | -9.63 | -8.13 | -9.3 | -8.09
CC(C(=O)O)c1ccc2c(c1)Cc1cccnc1O2 (stereo not drawn) [Pranoprofen] | 1.12 | -0.347 | -1.16 | 0.212
CC1(C)S[C@@H]2[C@H](NC(=O)[C@H](N)c3ccccc3)C(=O)N2[C@H]1C(=O)O [Ampicillin Trihydrate] | -0.00397 | 0.577 | 0.52 | 0.523

Structure (SMILES) | log2 surviving fraction (OVCAR4; carboplatin co-treatment 0 µM) | log2 surviving fraction (OVCAR4; carboplatin co-treatment 5 µM) | log2 surviving fraction (Ov4Carbo; carboplatin co-treatment 0 µM) | log2 surviving fraction (Ov4Carbo; carboplatin co-treatment 5 µM)
CCC[C@@H]1C[C@@H](C(=O)N[C@@H]([C@H]2O[C@H](SC)[C@H](OP(=O)(O)O)[C@@H](O)[C@H]2O)[C@H](C)Cl)N(C)C1 [Clindamycin phosphate] | -1.62 | -2.32 | -0.552 | -0.551
Nc1nc2c(ncn2COCCO)c(=O)[nH]1 [Acyclovir (Aciclovir)] | 0.291 | 0.641 | 0.11 | 0.762
CCOC(=O)[C@H](CCc1ccccc1)N[C@H]1CS[C@H](c2cccs2)CN(CC(=O)O)C1=O [Temocapril HCl] | 0.155 | -0.244 | -0.385 | -0.0975
Cc1c(Cl)cccc1Nc1ccccc1C(=O)O [Tolfenamic acid] | -0.0988 | -0.578 | 0.326 | -0.734
O=C1CC[C@@H](C(=O)N2CSC[C@H]2C(=O)O)N1 [Pidotimod] | 0.721 | 0.898 | 0.436 | -0.392
O=C(Nc1ccccc1)OCC(CN1CCCCC1)OC(=O)Nc1ccccc1 (stereo not drawn) [Diperodon HCl] | -1.16 | -2.15 | -1.61 | -1.31
NCC1(CC(=O)O)CCCCC1 [Gabapentin Hydrochloride] | 0.664 | -1.07 | -9.66 | -1.78
CC(C)(C)NCC(O)c1ccc(O)c(CO)c1 (stereo not drawn) [Salbutamol sulfate (Albuterol)] | -0.966 | -0.581 | -0.54 | 0.479
N=C(N)NC(=O)c1nc(Cl)c(N)nc1N [Amiloride hydrochloride dihydrate] | -0.106 | -0.0733 | -0.145 | 0.283
CC(C)(C)C(=O)OCOP(=O)(COCCn1cnc2c(N)ncnc21)OCOC(=O)C(C)(C)C [Adefovir Dipivoxil (Preveon, Hepsera)] | -7.33 | -4.64 | -5.14 | -4.37
CCCCOc1cc(C(=O)OCCN(CC)CC)ccc1N [Oxybuprocaine HCl] | 0.271 | -0.0373 | 0.929 | 0.617
CC1Cc2ccccc2N1NC(=O)c1ccc(Cl)c(S(N)(=O)=O)c1 (stereo not drawn) [Indapamide (Lozol)] | -2.87 | -2.39 | 1.07 | 0.505
COc1ccc(C(=O)CC(=O)c2ccc(C(C)(C)C)cc2)cc1 [Avobenzone (Parsol 1789)] | 0.291 | -0.14 | 0.262 | 0.304
CN(C/C=C/C#CC(C)(C)C)Cc1cccc2ccccc12 [Terbinafine (Lamisil, Terbinex)] | -1.34 | 0.207 | 0.205 | 0.55
CNC[C@H](O)[C@@H](O)[C@H](O)[C@H](O)CO [Meglumine] | 0.247 | 0.797 | -0.0393 | 2.14
Nc1ccn([C@@H]2CS[C@H](CO)O2)c(=O)n1 [Lamivudine (Epivir)] | 1.04 | 0.764 | 0.71 | 0.553
CN(Cc1ccc(C(C)(C)C)cc1)Cc1cccc2ccccc12 [Butenafine HCl] | -0.239 | -0.065 | -0.91 | -0.6
CC(C)Cc1ccc(C(C)C(=O)O)cc1 (stereo not drawn) [Ibuprofen Lysine (NeoProfen)] | 0.846 | 1.04 | 0.25 | 0.0215
CCCNC(=O)NS(=O)(=O)c1ccc(Cl)cc1 [Chlorpropamide] | -0.31 | -0.397 | 0.615 | 0.147

Structure (SMILES) | log2 surviving fraction (OVCAR4; carboplatin co-treatment 0 µM) | log2 surviving fraction (OVCAR4; carboplatin co-treatment 5 µM) | log2 surviving fraction (Ov4Carbo; carboplatin co-treatment 0 µM) | log2 surviving fraction (Ov4Carbo; carboplatin co-treatment 5 µM)
N#CC(c1ccc(Cl)cc1)c1c(Cl)cc(-n2ncc(=O)[nH]c2=O)cc1Cl (stereo not drawn) [Diclazuril] | -0.394 | -0.156 | -1.6 | -1.9
CCCN(CCC)CCc1cccc2c1CC(=O)N2 [Ropinirole HCl] | -0.00216 | 0.151 | 0.402 | -0.299
CCC(=O)O[C@@H](O[P@](=O)(CCCCc1ccccc1)CC(=O)N1C[C@H](C2CCCCC2)C[C@H]1C(=O)O)C(C)C [Fosinopril sodium (Monopril)] | 1.33 | 0.43 | 0.763 | 0.195
CC(N/C(=N\C#N)Nc1ccncc1)C(C)(C)C (stereo not drawn) [Pinacidil] | 0.0127 | 0.123 | -0.0944 | 0.735
NCC1(CC(=O)O)CCCCC1 [Gabapentin (Neurontin)] | 0.437 | 0.134 | 0.172 | 0.337
Nc1ccn([C@@H]2O[C@H](CO)[C@@H](O)[C@@H]2O)c(=O)n1 [Cytarabine] | -7.8 | -5.72 | -4.74 | -5.53
CN(C)CCOC(c1ccccc1)c1ccccc1 [Diphenhydramine HCl (Benadryl)] | 0.446 | 0.553 | 0.0465 | 0.157
NC[C@H]1CC[C@H](C(=O)O)CC1 [Tranexamic acid (Transamin)] | 0.383 | 0.618 | 0.477 | 0.352
CCN(CCCc1ccccc1)CCCc1ccccc1 [Alverine Citrate] | 0.93 | 0.421 | 0.682 | -0.459
Cc1cc(O)ccc1Cl [Chlorocresol] | 0.622 | 0.784 | -0.136 | 0.289
CNC(=C[N+](=O)[O-])NCCSCc1ccc(CN(C)C)o1 [Ranitidine (Zantac)] | 0.403 | 0.551 | 0.953 | 0.854
C/C(=C(\CCOP(=O)(O)O)SC(=O)c1ccccc1)N(C=O)Cc1cnc(C)nc1N [Benfotiamine] | 1.35 | 0.733 | 0.65 | 0.456
CC(C)[C@H](N)C(=O)OCC(CO)OCn1cnc2c(=O)nc(N)[nH]c21 (stereo partly drawn) [valganciclovir hydrochloride] | -0.135 | -0.282 | 0.179 | 0.752
C[C@@H]1C[C@H]2[C@@H]3C[C@H](F)C4=CC(=O)C=C[C@]4(C)[C@@]3(F)[C@@H](O)C[C@]2(C)[C@@]1(O)C(=O)CO [Flumethasone] | 0.349 | -0.172 | 1.06 | 0.338
CCOC(=O)c1ccc(C#Cc2ccc3c(c2)C(C)(C)CCS3)nc1 [Tazarotene (Avage)] | -0.506 | 0.154 | -0.205 | -0.376
CC(/C=C1\SC(=S)N(CC(=O)O)C1=O)=C\c1ccccc1 [Epalrestat] | 0.151 | 0.572 | 0.241 | 0.477
C[C@]12CCC(=O)C=C1[C@@H]1C[C@@H]1[C@H]1[C@@H]3[C@@H]4C[C@@H]4[C@@]4(CCC(=O)O4)[C@@]3(C)CC[C@@H]12 [Drospirenone] | 1.08 | 0.153 | 0.647 | -0.3
CCCCN(CCCC)CCCOC(=O)c1ccc(N)cc1 [Butacaine] | 0.217 | 0.163 | -1.11 | 0.724
C=C1c2cccc(O)c2C(=O)C2=C(O)[C@]3(O)C(=O)C(C(N)=O)=C(O)[C@@H](N(C)C)[C@@H]3[C@@H](O)[C@H]12 [Methacycline hydrochloride (Physiomycine)] | -0.947 | -0.238 | -0.0293 | -0.45
